According to publication PMC12136788:
The list shows a part of the results.

B1: 105037214_105037334_355_CDS_ENSG00000148798_ENST00000369849|human|control|control (ssRNA)
RNA: GGGAGUUCUACAGUCCGACGAUCCAACGCGCGGUUCUGCGUCUCCAGCUGAUGCACCUUCUCGAUGAACACGGCGAAGCGGUCGUUGAGGCCCUGCAGCUGCUCCUUCUCGUUGGUGCGGAUGAUCUUGUACUCGUUGGUGCGCAACAGAGGAUUGAGCAUCA
B2: chr16:94690093:94690094:+_ENSMUSG00000040785_ENSMUST00000117648|mus_hu|mus_mus_mus_hu_True|1_28 (ssRNA)
RNA: GGGAGUUCUACAGUCCGACGAUCGGGCUGGGAUGACGGACACACAGCCUCGAUUCCAGGGGGAAAAAGUCUUAGUCGAUACUAAUUAAAAAGUGUUAAUGAUUUUUAUUACCAAAAUUACAUCUAUAAAAGAUGAAAGCACUUCAACAGAGGAUUGAGCAUCA
B3: chr7:141445308:141445309:+_ENSG00000106028_ENST00000265304|hu_hu|hu_hu_hu_mus_False|68_98 (ssRNA)
RNA: GGGAGUUCUACAGUCCGACGAUCUAUGAUUGUUGUUGCUUGUCGCCUCACAUUGUUUUUAUCCAUGUAUUCACCAUAGUCCACUUUCCCUUCCACAAAUAUACGAGCCCCCUUUUUCACAUACUGAUAUGCCACAUCUCUGAGCAACAGAGGAUUGAGCAUCA
B4: chr2:179515052:179515053:+_ENSMUSG00000000305_ENSMUST00000000314|mus_hu|mus_mus_mus_hu_False|1_18 (ssRNA)
RNA: GGGAGUUCUACAGUCCGACGAUCGCUGUCCCAUGCAGUCACCGUGAACGCCACCUGCUCGGAGGGGACCUGCAGCUCCCGGGUGGCGAAGACUGUCCCAUCUGCCCCAACUUUGAAGUCCAAGCUGUUGGUCUCAUACUGCAUCAACAGAGGAUUGAGCAUCA
B5: chr1:220276048:220276049:+_ENSG00000067704_ENST00000302637|hu_hu|hu_hu_hu_mus_True|18_38 (ssRNA)
RNA: GGGAGUUCUACAGUCCGACGAUCGCAAAUUGCCUGGUUGGCGGGAAUUGUCCAAGGCUGGGUGGUCCAAACUAAAACGCUAACAGGGGAUGAGGCAUCUAUAAGAGACUCCAACUUUGGAGAAGGCCUCAGGAGGGGGAAUCUCAACAGAGGAUUGAGCAUCA
B6: chr16:18151368:18151369:+_ENSMUSG00000043811_ENSMUST00000059589|mus_mus|FALSE|FALSE (ssRNA)
RNA: GGGAGUUCUACAGUCCGACGAUCGAGGAGGCGGUCAAGACUGUGCAGGCCACGGAAAGCGUGCUCAGGCACACUGGGGAUACGGUUGCCAUGCAGAAAGAGAUGCGUGAGGUUGCCCAGGUCUCGAAAGGUGUUGUCAGGGAGCAACAGAGGAUUGAGCAUCA
B7: 18185068_18209478_189_3pUTR_ENSG00000099968_ENST00000399777|human|control|control (ssRNA)
RNA: GGGAGUUCUACAGUCCGACGAUCUUCCUCCUCCUCUGACUCAAGACUAAACACAGUGCCCCAGCCACCUUGCUGAAUGAUGUACUCUGCCGAAUAGUCCUCCAGGUAUGUCACGCCAAACUGCAGCAGUGCGCUCAAAGGUUCCAACAGAGGAUUGAGCAUCA
B8: chr10:106022761:106022762:+_ENSG00000148834_ENST00000369713|hu_mus|motif|central (ssRNA)
RNA: GGGAGUUCUACAGUCCGACGAUCGAAUUCGUUCUCCAACGCUUCCCUUAGGUUCGGAGAGUCUUCCUUUCUCUUCGACCGGACAAAGCUUGCAAUCAAAGGCGGCACCUUAGAGAAUGACUCAAGGGUCAUCUUCUGACGUGCCAACAGAGGAUUGAGCAUCA
B9: chr4:103717905:103717906:-_ENSG00000109332_ENST00000394803|hu_mus|motif|central (ssRNA)
RNA: GGGAGUUCUACAGUCCGACGAUCUUCAGUGCUAUAUUAAACAGUAUUGGAAGAUAGAUUAACUAAUAGCUCCAAGCCUCCGGACAAUUUAAAUGAAAAUUACAAAAUGUUUUGAGACCCUAUUUUGGAAUACAAAGGGUGUUUCAACAGAGGAUUGAGCAUCA
B10: chr7:54825262:54825263:-_ENSG00000132432_ENST00000352861|hu_hu|hu_hu_hu_mus_False|8_108 (ssRNA)
RNA: GGGAGUUCUACAGUCCGACGAUCCUGACUUGGCUCAUCCACAAACUGCAUUACCUGAUCCAUGUUUGUUGGAUGGCGGAUUGAGAGCGUAGAGACACGUAGCUCAGGAGAGAACCGAGCCCAACGGCACCGGAACCUGGCAACCAACAGAGGAUUGAGCAUCA
B11: chr19:7501953:7501954:-_ENSMUSG00000024758_ENSMUST00000025667|mus_hu|FALSE|FALSE (ssRNA)
RNA: GGGAGUUCUACAGUCCGACGAUCCAAGGAAGGUAUCACACUCCUGUCCCCAAAUAAUUUUUUCAUAAGUUAAUCAUGACUUCUUAAGGGCAAAACUAUAAUGGAUAGCUGAGUAAGACUAGUGCUGAAAACUGGACAGAAGGACAACAGAGGAUUGAGCAUCA
B12: chr11:77336104:77336105:-_ENSG00000074201_ENST00000525064|hu_mus|hu_hu_hu_mus_False|28_78 (ssRNA)
RNA: GGGAGUUCUACAGUCCGACGAUCCUCACACAUUGCUGUGAACAUCGCCUCCAAUGCUGAUUUAUCACUGGGCACAAAUCGAAAUUCAGAAAUGGGUUCAACAUCAUCAUCACUGUCCUCAUCUUCAUCAGAGAGAGGUUCUUUCAACAGAGGAUUGAGCAUCA
B13: chr2:172809444:172809445:+_ENSG00000128708_ENST00000264108|hu_hu|FALSE|FALSE (ssRNA)
RNA: GGGAGUUCUACAGUCCGACGAUCCUCAUCAACUUUAGAUGCAUAUUCAACACGGAACAUUGUUGACAGGCUACCAGCAAUAUAGUAUAACAGGAUCUUUAGACCCUUGUAACCAAAAGCAGUUUCAUCAUCCCCAAAGAGUUGCAACAGAGGAUUGAGCAUCA
B14: chr5:128448638:128448639:+_ENSG00000066583_ENST00000173527|hu_mus|hu_hu_hu_mus_False|18_78 (ssRNA)
RNA: GGGAGUUCUACAGUCCGACGAUCGGCACUCGCCUUAAUUAGGUUCUGAAUUUCCUUGAAUUUUGGAUGGUCUUUGUCAGCCACCAGCUGUAGGAGGACAGCCUCACUAGUGGUCACUAUGAUCCCGGUGCGGGCAAGACGCUCCAACAGAGGAUUGAGCAUCA

Biological target: T1, UNK ZnF1-3 (human, UniProt Q9C0B0 31-174)
T1 sequence: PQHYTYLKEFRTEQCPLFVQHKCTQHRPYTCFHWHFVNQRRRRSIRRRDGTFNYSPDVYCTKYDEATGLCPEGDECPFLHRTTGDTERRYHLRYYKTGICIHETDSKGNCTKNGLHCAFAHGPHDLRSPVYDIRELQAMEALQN
Assay: nsRBNS (natural sequence RNA bind-n-seq); RBNS binding buffer (assumed for nsRBNS): 25 mM Tris pH 7.5, 150 mM KCl, 3 mM MgCl2, 0.01% Triton X-100, 500 ug/ml BSA, 20 U/ml SUPERase-In, 4 C; UNK is unkempt and MSI1 is Musashi-1; names of the RNAs are library labels; protein concentration not given here; high values mean tight binding

With B1 as the binder, how does the binding signal read?
The binding signal was 0.556 enrichment R.

With B2 as the binder, how does the binding signal read?
The binding signal was 0.961 enrichment R.

How did the binding signal turn out when B3 was run?
The binding signal was 0.593 enrichment R.

How did the binding signal turn out when B4 was run?
Its binding signal is 0.69 enrichment R.

Which binding signal does the source give for B5 here?
The binding signal was 2.79 enrichment R.

Which binding signal does the source give for B6 here?
The binding signal was 1.57 enrichment R.

How did the binding signal turn out when B7 was run?
Its binding signal is 1.21 enrichment R.

Which binding signal does the source give for B8 here?
The binding signal was 0.427 enrichment R.

Which binding signal does the source give for B9 here?
Its binding signal is 1.67 enrichment R.

How did the binding signal turn out when B10 was run?
The binding signal was 0.825 enrichment R.

B11 was tested. Which binding signal did it give?
The binding signal was 1.29 enrichment R.

For B12, which binding signal is on record?
Its binding signal is 1.06 enrichment R.

Which binding signal does the source give for B13 here?
The binding signal was 1.22 enrichment R.

Which binding signal does the source give for B14 here?
Its binding signal is 0.654 enrichment R.
